Assay results reported in article PMC12136788.
The other results are listed elsewhere or left out.

T1: UNK ZnF1-3 (human, UniProt Q9C0B0 31-174)
T1 sequence: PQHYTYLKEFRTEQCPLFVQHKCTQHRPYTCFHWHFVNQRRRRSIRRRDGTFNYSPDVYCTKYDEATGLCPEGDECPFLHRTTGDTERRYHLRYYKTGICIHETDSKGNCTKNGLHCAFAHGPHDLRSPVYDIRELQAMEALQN

B1: chr2:202488911:202488912:-_ENSG00000155755_ENST00000286196|hu_mus|hu_hu_hu_mus_False|38_48 (ssRNA)
RNA: GGGAGUUCUACAGUCCGACGAUCAUUGAAACAUUUUUCAUAAUCUCCAGUAGCAUUUCAGCAUUAUGUAACAAAAGCUCAAUUGUAAAUACACAUGUAUACAUCUUAUACACUUAAAAACACGAGUGGGGAGCGCAGGCGCCACAACAGAGGAUUGAGCAUCA
B2: chr11:52220846:52220847:+_ENSMUSG00000036275_ENSMUST00000036952|mus_mus|FALSE|FALSE (ssRNA)
RNA: GGGAGUUCUACAGUCCGACGAUCGGGCCUUUCAAAGGGAACACUGCUGCCAGAGGCACAAUAAAUGGAAAAUAAUAAGAACUACACCAAAGGAUAAAGUAAUGUUUAACUCACAUUUCAGACACCUGAUUGAAUCUAGCUCUACAACAGAGGAUUGAGCAUCA
B3: 125816376_125816496_1655_3pUTR_ENSMUSG00000042608_ENSMUST00000094761|mouse|control|control (ssRNA)
RNA: GGGAGUUCUACAGUCCGACGAUCAUUCUCAGAUAAAAAAACAAUCAAGCAAUCAUCCCAAAAGGUAGCUCUGUGGUACCUCUGUUGACCCUGGCUGUGACCUGGGCUGUCCCUAUCCCUGCCCUAUCCCUACUGCAGCCUGGGCAACAGAGGAUUGAGCAUCA
B4: chr1:100327937:100327938:+_ENSG00000162688_ENST00000361915|hu_hu|FALSE|FALSE (ssRNA)
RNA: GGGAGUUCUACAGUCCGACGAUCUUCUUUUGCAACCCUAAGUCUGCUUUCCCAUUCAUCAAAAGGUCCCAAACACUUAGCUAAAAAUGUCUGAAGAGUAACACAGUCCAAGGGUAGCACAUGAUUAUCAGCACCAACACGUAACAACAGAGGAUUGAGCAUCA
B5: chr17:65740002:65740003:+_ENSG00000130935_ENST00000581375|hu_hu|hu_hu_hu_mus_False|18_88 (ssRNA)
RNA: GGGAGUUCUACAGUCCGACGAUCAACAAAUCUUUCUUCCCUGGACGCAAGAGUUCAUUCAUAUUAAAAAAAAUAUAUAUCCAUCAAGUUAGGUGUGGUGGCCACACCUUUACUCCCCACUUCAAUUGAGGUGGAUCUCUGAGUCAACAGAGGAUUGAGCAUCA
B6: chr9:70551142:70551143:+_ENSMUSG00000054693_ENSMUST00000067880|mus_mus|motif|central (ssRNA)
RNA: GGGAGUUCUACAGUCCGACGAUCACGCUGGUGUUUUUGGUGUAAUGAAUCCACAUUGUAAGAUAAUCCUUCAUAAUGUCGGAUAUAUUUAUUUAAAGGAUUUCCAUACUGACCUCCCAGCCCCGCCGCCCAGGAGAGGAGCAGCAACAGAGGAUUGAGCAUCA
B7: chr1:224612315:224612316:-_ENSG00000162923_ENST00000295024|hu_mus|FALSE|FALSE (ssRNA)
RNA: GGGAGUUCUACAGUCCGACGAUCCGUCAGUUCGCAGCGUAGAACUUGAAGUGCCUCCAGGACCUUGCCGUCCUCCAGGUAUUCCAGGUACUUCUGCUGCAGCAGCAGAAACUUCAUCCUCACAAUAGCGUGAGGAGAAUGCACCAACAGAGGAUUGAGCAUCA
B8: chr12:56499883:56499884:+_ENSMUSG00000021024_ENSMUST00000021412|mus_hu|motif|central (ssRNA)
RNA: GGGAGUUCUACAGUCCGACGAUCGGUAAUGUGGCGGUCAAAACCGGCGCUGGAACCACGGGACAUGUUGGUAGAAGCACGGCUUUAAACACAAUCCCUGGGCCCCGUAGCUCCCGCACCAGGCACACAAGCACCUCCCGGAAGCAACAGAGGAUUGAGCAUCA
B9: chr18:43482012:43482013:-_ENSMUSG00000024501_ENSMUST00000121805|mus_mus|FALSE|FALSE (ssRNA)
RNA: GGGAGUUCUACAGUCCGACGAUCGGAUUGAUCCCCAAAUUUGAAUUGUAACUCAAAACUUCAUUCCAUUCUUUUUCUUCUAAAGUCUCCUUUAAAAUGAAAGCACCAUGAGAGCUUUAAAGAAGCAAGAUUCCUCUUCUGAGGCAACAGAGGAUUGAGCAUCA
B10: chr7:106826281:106826282:+_ENSG00000105856_ENST00000468410|hu_hu|FALSE|FALSE (ssRNA)
RNA: GGGAGUUCUACAGUCCGACGAUCUUCACUCUUCGAAGAAGAGGACACUGGUGGAGGGCGUGCAUAGGAAUGUAAACUUUUGCUAGUGGCUAUGAUGUGUACAGGAGAUGAUCUAUUGUAAAAUGAGCACUGCAUCAGUGGACUCAACAGAGGAUUGAGCAUCA
B11: chr4:144391305:144391306:+_ENSG00000109458_ENST00000262995|hu_mus|motif|central (ssRNA)
RNA: GGGAGUUCUACAGUCCGACGAUCCGGUGGAGAGAGAGAGAGAGCGAGCGAGCUAAGAGUAGUAAUCUUGAAUUCCUGCCGGAUUCAUUCAAAAUCACACUAUGCUGCUGACAGUGAACGCCAACUGUUUCAUUAAUUCUAAACCAACAGAGGAUUGAGCAUCA
B12: chr8:97244095:97244096:-_ENSG00000156467_ENST00000518406|hu_hu|FALSE|FALSE (ssRNA)
RNA: GGGAGUUCUACAGUCCGACGAUCAUGCUUCAAGUUCAGGUCCAGUGCCCUCUUAAUGCGAAACAUCCUGUCAUUAUAAAGGUUCUCAGGAAGUCUUCUUAUGGCUUCUUUUACAUCUUCAUCCUCGUAUAUUGUAUCAUCUCGCAACAGAGGAUUGAGCAUCA
B13: 46963496_46964334_1533_3pUTR_ENSMUSG00000025041_ENSMUST00000168536|mouse|control|control (ssRNA)
RNA: GGGAGUUCUACAGUCCGACGAUCAUUGAUAUCCACAUGCGUGUGUUCCACCGUUGACUCGUGCGGCAUCAGGACAUGGGCAGCUCUGAAGAGGUAGCUGAAUGGGUAGUACAGCAGGUUGAUGAACGAGGCCGCAUAGAGAUCCAACAGAGGAUUGAGCAUCA
B14: chr7:141445308:141445309:+_ENSG00000106028_ENST00000265304|hu_hu|hu_hu_hu_mus_False|48_98 (ssRNA)
RNA: GGGAGUUCUACAGUCCGACGAUCUAUGAUUGUUGUUGCUUGUCGCCUCACAUUGUUUUUAUCCAUGUACUCGCCAUAGUCCACUUUCCCUUCCAAAAAUAUACGAGCCCCCUUUUUCACAUACUGAUAUGCCACAUCUCUGAGCAACAGAGGAUUGAGCAUCA
B15: chr19:16212804:16212805:+_ENSG00000167460_ENST00000300933|hu_mus|hu_hu_hu_mus_False|18_108 (ssRNA)
RNA: GGGAGUUCUACAGUCCGACGAUCAACAAAUAUGCAAUGAAGGAAAGAUGUAACAUGGAACAGCAUUAAAGCUCAGUCAGAAGGCACAUGGGCAACAAUGAUCACCCCAGCAUUCUCCUACGUUGACCUUAAAGACAAUCUGUUCAACAGAGGAUUGAGCAUCA
B16: chr14:102368134:102368135:+_ENSG00000078304_ENST00000445439|hu_hu|hu_hu_hu_mus_True|78_108 (ssRNA)
RNA: GGGAGUUCUACAGUCCGACGAUCAAGGGGUUCCAUGAUCUUCACAAACUCUGAUGGUUCAAUGACAUCUAAAAUUUCUUCUAAUUCAUUUAAGAACAUUACUUCUUUUGGACUGUGAGUCUUUGGCCAGUAUUUGAGAAGUGCCAACAGAGGAUUGAGCAUCA
B17: chr7:99593380:99593381:+_ENSMUSG00000052572_ENSMUST00000098308|mus_hu|motif|central (ssRNA)
RNA: GGGAGUUCUACAGUCCGACGAUCGGUGAGGAGGCUCUCAUCUCAUCUCUUGGGCAGAAAGCCCGUCAGAGGUUCAUCCCGGCACCUGGCACUUUGAGCAAACCAAAGCCUUCCUUCAUACUGCAAUGUCUUUUCUGUCCCACCCAACAGAGGAUUGAGCAUCA
B18: chr4:140556289:140556290:+_ENSMUSG00000036622_ENSMUST00000037055|mus_mus|mus_mus_mus_hu_False|58_58 (ssRNA)
RNA: GGGAGUUCUACAGUCCGACGAUCGAUGGAGCUCACCAGGCCCCCUUUUGCCGUGCAGAACCCUGUGCGGGUCACCACUGCUAGCACGUGCGGUCCCACAUAGGCCCGGGCCUGCAAGAUGAGGGUCCCGCAGAAGAGUGUGUGCAACAGAGGAUUGAGCAUCA
B19: chr2:73747301:73747302:-_ENSMUSG00000018770_ENSMUST00000018914|mus_hu|FALSE|FALSE (ssRNA)
RNA: GGGAGUUCUACAGUCCGACGAUCAUAACCAAUGAUAAGGCUGCCAAAGACUGUUCCAAUACCAGCACCAGAACCAGCCACUCCUACUGUUGCAGCACCUGCACCAAUAAAUUUGGCAGCAGUAUCAAUGUCUCUGCUGAUUGCCAACAGAGGAUUGAGCAUCA
B20: chr7:54825262:54825263:-_ENSG00000132432_ENST00000352861|hu_hu|hu_hu_hu_mus_False|8_98 (ssRNA)
RNA: GGGAGUUCUACAGUCCGACGAUCCUGCCGGCUGGGCACAAACUGCAGCAUUACCUGAUCCAUGUUUGUUGGAUGGCGGAUUGAGAGCGUAGAGACACGUAGCUCAGGAGAGAACCGAGCCCAACGGCACCGGAACCUGGCAACCAACAGAGGAUUGAGCAUCA
B21: chr19:60835742:60835743:+_ENSMUSG00000072437_ENSMUST00000088237|mus_mus|FALSE|FALSE (ssRNA)
RNA: GGGAGUUCUACAGUCCGACGAUCUUCUGAAAAGGACUUUAUAGGAAAAAUAAAGUACAAAAAAGUAAAAAGCCGAUAAAACUAGCAAGUUUGGAUAGACAAAUGCAGGCUAAAGCACAGCACAACCUGUGCCUUUCUGCCCAUCAACAGAGGAUUGAGCAUCA
B22: 198353956_198358052_1041_CDS_ENSG00000144381_ENST00000345042|human|control|control (ssRNA)
RNA: GGGAGUUCUACAGUCCGACGAUCCUCUUCUCCAAACACUGCACCACCAGUAGCAAUAGCCAUAUCUUUAAGCUGGUUCUUUCUAUUGUCACCAAACCCUGGAGCCUUGACUGCCACAACCUGAAGACCAACCUUUAGCCUAUUCAACAGAGGAUUGAGCAUCA

molecular target: T1, UNK ZnF1-3; assay: nsRBNS (natural sequence RNA bind-n-seq); RBNS binding buffer (assumed for nsRBNS): 25 mM Tris pH 7.5, 150 mM KCl, 3 mM MgCl2, 0.01% Triton X-100, 500 ug/ml BSA, 20 U/ml SUPERase-In, 4 C; UNK is unkempt and MSI1 is Musashi-1; names of the RNAs are library labels; protein concentration not given here; high values mean tight binding

Binder	binding signal
B1	0.898 enrichment R
B2	2.06 enrichment R
B3	1.27 enrichment R
B4	1.32 enrichment R
B5	0.926 enrichment R
B6	1.56 enrichment R
B7	0.404 enrichment R
B8	0.64 enrichment R
B9	0.853 enrichment R
B10	1.44 enrichment R
B11	1.39 enrichment R
B12	0.55 enrichment R
B13	1.16 enrichment R
B14	0.742 enrichment R
B15	1.06 enrichment R
B16	0.734 enrichment R
B17	1.41 enrichment R
B18	1.08 enrichment R
B19	0.802 enrichment R
B20	1.34 enrichment R
B21	0.799 enrichment R
B22	1.14 enrichment R
